Test results reported in the supplement of paper PMC11417369.
± gives the standard deviation of the averaged measurements. Some of the results follow.

Test system: PfAP2-I AP2 domain 3 (GST-tagged)
Assay: gcPBM binding intensity (ln(normalized median fluorescence intensity)); higher = stronger DNA binding
Summary of the method: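 The binding buffer was 1× PBS containing 1% milk, 0.2 mg/ml BSA, 0.5% salmon testes DNA and 0.03% Triton X-100. In it, GST-tagged P. falciparum DNA-binding domains expressed in E. coli were applied for 1 h to an Agilent 4 × 180k array of primer-extended double-stranded 36-bp intergenic genomic probes plus negative controls. Binding intensity, read with Alexa488 anti-GST antibody and a 488 nm scan, is the highest Masliner-normalised natural-log median intensity across replicate spots of either probe orientation.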

“GGATAGATCATTTACACACACAAAAAAAAAAAAAAA [CACACA_site2139]” and “ATAATATATTATTATAGTACTTTATTTTATTTTATG [XGTACX_site2387]” are within error of each other in “gcPBM binding intensity (ln)” value: 8.04 ± 0.56 for the first, 7.67 ± 0.49 for the second.

“TAAGGAAAAAGAAAAAGTACATTATATAATAAATAG [XGTACX_site3282]” and “AAAAAAAATAAAATGAATAAATAAGAATTACATATT [CACACA_negctrl_site863]” are within error of each other in “gcPBM binding intensity (ln)” value: 7.89 ± 0.66 for the first, 7.39 ± 0.65 for the second.

“CAAATATATGTTTTCACACACAAAAGAAATGAAACC [CACACA_site2162]” and “TTGTATAAATATGTATGTATATAATATATGTAAAGA [TGCATGCA_negctrl_site93]” are within error of each other in “gcPBM binding intensity (ln)” value: 7.86 ± 0.65 for the first, 8.01 ± 0.58 for the second.

“CACATACACATACACATACACACGCATAGAAACATA [CACACA_site2136]” and “AAATCGTGTACATTGACACACATAATTTTTTTTATA [CACACA_site2463]” are within error of each other in “gcPBM binding intensity (ln)” value: 8.65 ± 0.78 for the first, 8.09 ± 0.38 for the second.

“AATATATTTATATAGTGTACATTTTTTATATATGTA [XGTACX_site8142]” and “TATTAATTTTTATTATGTACATAAATAATTTATATT [XGTACX_site5456]” are within error of each other in “gcPBM binding intensity (ln)” value: 7.67 ± 0.18 for the first, 7.7 ± 0.28 for the second.

Compared with “ATATGATGTAAAAGCACACATATATATATATATATA [CACACA_site4018]”, “TACTATAAAATGGAATGTACACATAAATATATCTAA [XGTACX_site6137]” is lower in “gcPBM binding intensity (ln)” value: 9.51 ± 0.37 for the first, 7.83 ± 0.46 for the second.

“GTTTATAACTATGTGTGTACACATTAATCGTTTTTC [XGTACX_site4364]” and “AGGATAATATACAAAAGTACATAAAACTAAAAAAAC [XGTACX_site605]” are within error of each other in “gcPBM binding intensity (ln)” value: 8.19 ± 0.3 for the first, 8.21 ± 0.59 for the second.

“AAAGAAAGAAAGAATACACACACACCGATATATATA [CACACA_site9246]” and “AACATATATTTTGAAACACACACATATATAATATAC [CACACA_site8301]” are within error of each other in “gcPBM binding intensity (ln)” value: 8.33 ± 0.68 for the first, 7.86 ± 0.59 for the second.

First: AATGTGTATATATATACACACACATATATATATTTT [CACACA_site8596]
Second: TCCTTTTTACTACTAGTGCATTATTTACAAGGTCCG [GTGCAC_site9441]
The “gcPBM binding intensity (ln)” value of the first is lower: 7.89 ± 0.49 for the first, 11.4 ± 0.68 for the second.

“ATATATATAAAATATTATATTAAAAAAAATAAAATA [GTGCAC_negctrl_site87]” and “TAGTTTTTTATATATTGTACTTAGAATATATTATAT [XGTACX_site3662]” are within error of each other in “gcPBM binding intensity (ln)” value: 7.51 ± 0.57 for the first, 7.66 ± 0.3 for the second.

Compared with “ATATAAATATATATATGTACATAATATATTATGTTT [XGTACX_site2806]”, “AATTTAACCACTAAAAGTACACACATATATACATAT [XGTACX_site8352]” is higher in “gcPBM binding intensity (ln)” value: 7.64 ± 0.32 for the first, 8.28 ± 0.31 for the second.

“GGACACCTTCAAAACACACATACAAATAAATAGAAA [CACACA_site3305]” and “AATAGTTCTTGAACGTGTACATAAAATATAATTTAC [XGTACX_site11]” are within error of each other in “gcPBM binding intensity (ln)” value: 7.67 ± 0.54 for the first, 7.79 ± 0.5 for the second.
